# The supplement of paper PMC9446081
# Among all 39,000 compounds or so, about 220 (0.56%) showed activity. The list shows a part of the results.
# System: Escherichia coli K-12 BW25113
# Test: relative growth (OD600 normalised to plate interquartile mean) (fraction); higher = less growth inhibition, active = 0.2 or less
# Conditions: 50 µM; LB; incubation time: overnight (16-24 h)
# 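Further: static incubation at 37 °C against the wild-type strain, values averaged over two biological replicates.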
row,Compound,relative growth
1,C[C@H]1CN([C@@H](C)CO)C(=O)c2cc(C#CCc3ccccc3)cnc2O[C@H]1CN(C)C(=O)Cc1cccnc1,inactive: 0.994
2,COCCOC(=O)N1C(=O)[C@@]2(c3cc(C#CC4=CCCCC4)ccc31)[C@H](c1ccccc1OCCO)N1[C@H](c3ccccc3)[C@H](c3ccccc3)OC(=O)[C@H]1[C@@H]2C(=O)N1CCc2cc(OC)c(OC)cc2C1,inactive: 1.07
3,C[C@@H]1CN([C@H](C)CO)C(=O)c2cccc(NC(=O)Nc3ccc(C(F)(F)F)cc3)c2O[C@H]1CN(C)Cc1ccccc1,inactive: 0.89
4,C[C@H]1CCCCO[C@H](CN(C)Cc2ccncc2)[C@@H](C)CN([C@@H](C)CO)C(=O)c2cc(NC(=O)NC3CCCCC3)ccc2O1,inactive: 0.996
5,COc1ccc(NC(=O)Nc2ccc3c(c2)C(=O)N([C@H](C)CO)C[C@@H](C)[C@@H](CN(C)Cc2ccccc2)OCCCC[C@@H](C)O3)cc1,inactive: 0.998
6,COCC(=O)N(C)C[C@@H]1Oc2cc(C#CC(C)(C)O)ccc2S(=O)(=O)N([C@H](C)CO)C[C@@H]1C,inactive: 1.02
7,C[C@H]1CN([C@@H](C)CO)C(=O)c2cc(-c3ccc(C#N)cc3)cnc2O[C@H]1CN(C)C(=O)Nc1ccc(C(F)(F)F)cc1,inactive: 1.01
8,C[C@H](CO)N1C[C@H](C)[C@@H](CN(C)C(=O)Cc2ccccn2)Oc2ncc(-c3ccc(F)cc3)cc2C1=O,inactive: 1.03
9,O=C(O)c1ccc(S(=O)(=O)N(Cc2ccc(OC(F)(F)F)cc2)c2ncc(C(F)(F)F)cc2Cl)cc1,inactive: 0.846
10,O=C(NCCO)c1cc2ccccc2oc1=O,inactive: 1.02
11,C[C@@H]1CCCCO[C@@H](CN(C)C(=O)Nc2ccc(F)cc2)[C@H](C)CN([C@H](C)CO)C(=O)c2cc(NS(=O)(=O)c3ccc(Cl)cc3)ccc2O1,inactive: 1.03
12,Cc1noc(C)c1NC(=O)N(C)C[C@H]1Oc2ccc(NS(=O)(=O)c3ccccc3)cc2C(=O)N([C@H](C)CO)C[C@H]1C,inactive: 0.984
13,CC(C)C#Cc1ccc2c(c1)O[C@H](CN(C)C(=O)c1cnccn1)[C@H](C)CN([C@@H](C)CO)S2(=O)=O,inactive: 0.986
14,C[C@H](CO)N1C[C@H](C)[C@H](CN(C)S(=O)(=O)c2ccc(C(F)(F)F)cc2)OCc2ccccc2-c2ccccc2C1=O,inactive: 1.01
15,C[C@@H]1CCCCO[C@@H](CN(C)C(=O)c2ccncc2)[C@@H](C)CN([C@H](C)CO)C(=O)c2cc(NC(=O)CCCCCC(=O)Nc3ccccc3N)ccc2O1,inactive: 1.02
